Measured values as given in article PMC11082251.
No constants are given. Whether binding was seen depends on the method and setting. In cells and extracts the contact can be indirect. Some entries that bind do so weakly or less than the wild type.

Biological target: endogenous p65 (RelA/p65), wild type (human (endogenous in HEK293T)), Q04206
Experiment: co-IP; endogenous proteins in p65^+/+, p65^S180D/KI, p65^S180A/KI and CLK2^−/− HEK293T cells, in the presence or absence of TNF-α stimulation; results normalised to total p65
Settings: remark: other sources report otherwise

- binding: binds
B1: endogenous IκBα, P25963 1-317 (protein)
chain: MFQAAERPQEWAMEGPRDGLKKERLLDDRHDSGLDSMKDEEYEQMVKELQEIRLEPQEVPRGSEPWKQQLTEDGDSFLHLAIIHEEKALTMEVIRQVKGDLAFLNFQNNLQQTPLHLAVITNQPEIAEALLGAGCDPELRDFRGNTPLHLACEQGCLASVGVLTQSCTTPHLHSILKATNYNGHTCLHLASIHGYLGIVELLVSLGADVNAQEPCNGRTALHLAVDLQNPDLVSLLLKCGADVNRVTYQGYSPYQLTWGRPSTRIQQQLGQLTLENLQMLPESEDEESYDTESEFTEFTEDELPYDDCVFGGQRLTL
